Measurements from patent US20160213647A1, “COMPOSITIONS AND METHODS FOR INHIBITING VIRAL INFECTION” (priority 2015, published 2016).

Tests used:
Human herpes virus-6 = assay: organism not typed
Hepatitis C virus = assay: microbe, parasite or virus in culture
Hepatitis B virus = assay: microbe, parasite or virus in culture
[1] = tested on: Yellow Fever Virus - Strain 17D; assay: microbe, parasite or virus in culture; type: cell-based; settings: Vero
[2] = tested on: Dengue virus 2 - New Guinea C; assay: In vitro viral screen (Table 7), Vero 76; type: cell-based
[3] = tested on: Pichinde Virus - Strain An 4763; assay: microbe, parasite or virus in culture; type: cell-based; settings: Vero
[4] = tested on: Measles Virus - Strain CC; assay: microbe, parasite or virus in culture; type: cell-based; settings: Measles morbillivirus
[5] = tested on: Punta Toro Virus - Adames Strain; assay: microbe, parasite or virus in culture; type: cell-based
[6] = tested on: Respiratory Syncytial Virus - Strain A2; assay: microbe, parasite or virus in culture; type: cell-based; settings: human respiratory syncytial virus
[7] = tested on: Rift Valley Fever Virus - Strain MP-12; assay: microbe, parasite or virus in culture; type: cell-based
[8] = tested on: SARS coronavirus - Strain Urbani; assay: microbe, parasite or virus in culture; type: cell-based; settings: Severe acute respiratory syndrome coronavirus
[9] = tested on: Tacaribe Virus - Strain TRVL 11573; assay: microbe, parasite or virus in culture; type: cell-based; settings: Mammarenavirus tacaribeense, Vero
[10] = tested on: West Nile Virus - Strain Kerne 515, WN02; assay: In vitro viral screen (Table 7), Vero 76; type: cell-based
[11] = tested on: all virus isolates tested (HIV-1); assay: microbe, parasite or virus in culture; type: cell-based; settings: Human immunodeficiency virus 1, PBMC
[12] = Vero 76, read-out: EC50 (neutral red)
[13] = Vero 76, read-out: EC50 (visual)

Q: Which EC50 (Human herpes virus-6) does the source give for NCC(=O)Nc1ccc(-n2nc(C(F)(F)F)cc2-c2ccc3c(ccc4ccccc43)c2)cc1 [AR-12, 2-amino-N-(4-(5-(phenanthren-2-yl)-3-(trifluoromethyl)-1H-pyrazol-1-yl)phenyl)acetamide] here?
A: The EC50 was > 480 nM.

Q: What about the EC90 (Human herpes virus-6) of the same compound?
A: The EC90 was > 480 nM.

Q: What about the EC50 (Hepatitis C virus) of the same compound?
A: The EC50 was 120 nM.

Q: And the EC90 (Hepatitis C virus)?
A: The EC90 was 190 nM.

Q: And the EC50 (Hepatitis B virus)?
A: The EC50 was 6.65 µM.

Q: What about the EC90 (Hepatitis B virus) of the same compound?
A: The EC90 was 56.8 µM.

Q: What about the EC50 ([1]; read-out: EC50 (Neutral Red)) of the same compound?
A: The EC50 was 0.28 µg/mL (≈ 0.608 µM).

Q: What about the EC50 ([1]; read-out: EC50 (visual)) of the same compound?
A: Its EC50 is 0.32 µg/mL (≈ 0.695 µM).

Q: And the EC50 [2, 12]?
A: The EC50 was 0.86 µg/mL (≈ 1.87 µM).

Q: And the EC50 [2, 13]?
A: Its EC50 is 3.2 µg/mL (≈ 6.95 µM).

Q: And the EC50 ([3]; read-out: EC50 (neutral red))?
A: The EC50 was 2.2 µg/mL (≈ 4.78 µM).

Q: What about the EC50 ([3]; read-out: EC50 (visual)) of the same compound?
A: Its EC50 is 1.3 µg/mL (≈ 2.82 µM).

Q: What about the EC50 [4, 12] of the same compound?
A: The EC50 was 1.9 µg/mL (≈ 4.13 µM).

Q: What about the EC50 [4, 13] of the same compound?
A: The EC50 was 2.6 µg/mL (≈ 5.65 µM).

Q: And the EC50 [5, 12]?
A: The EC50 was 1 µg/mL (≈ 2.17 µM).

Q: What about the EC50 [5, 13] of the same compound?
A: The EC50 was 2.5 µg/mL (≈ 5.43 µM).

Q: What about the EC50 ([6]; MA104, read-out: EC50 (neutral red)) of the same compound?
A: The EC50 was 3.1 µg/mL (≈ 6.73 µM).

Q: And the EC50 ([6]; MA104, read-out: EC50 (visual))?
A: The EC50 was 3.2 µg/mL (≈ 6.95 µM).

Q: And the EC50 [7, 12]?
A: Its EC50 is > 100 µg/mL.

Q: What about the EC50 [7, 13] of the same compound?
A: Its EC50 is > 100 µg/mL.

Q: What about the EC50 [8, 12] of the same compound?
A: Its EC50 is > 1.5 µg/mL.

Q: What about the EC50 [8, 13] of the same compound?
A: The EC50 was 3.2 µg/mL (≈ 6.95 µM).

Q: And the EC50 ([9]; read-out: EC50 (neutral red))?
A: The EC50 was 0.86 µg/mL (≈ 1.87 µM).

Q: What about the EC50 ([9]; read-out: EC50 (visual)) of the same compound?
A: Its EC50 is 0.62 µg/mL (≈ 1.35 µM).

Q: And the EC50 [10, 12]?
A: The EC50 was 2.6 µg/mL (≈ 5.65 µM).

Q: What about the EC50 [10, 13] of the same compound?
A: The EC50 was 3.2 µg/mL (≈ 6.95 µM).

Q: And the IC50 ([11]; read-out: IC50 range)?
A: Its IC50 is 489 to 1020 nM.

Q: And the IC50 ([11]; read-out: average IC50 value)?
A: Its IC50 is 812 nM.

Values after ≈ are worked out from the molar mass of the structure shown. Read-outs that look alike come from different tables or passages of the source.
